The test system of this series is ATP. Nature of the series: switch fluorescence ratio, 500 uM ATP over buffer (Cy3 cluster intensity, sum of 5 cycles each) (fold (ratio)); higher = stronger signal-on switching upon ATP binding; sequences stand for … in TCGTCGGCAGCGTCAGATGTGTATAAGAGACAGTTTTTTTTTTTTTTTTTTTTTTTTT…TC. Conditions: aptamer strand: ATP DNA aptamer (quencher-CACCTGGGGGAGTATTGCGGAGGAAGG + anchor), 100 nM annealed; ATP concentration: 500 uM; one replicate. The essentials: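 The fluorescence ratio divides summed target-cycle Cy3 intensity by summed buffer-cycle Cy3 intensity for each cluster and is averaged per switch-domain sequence. Cy3-labelled switching-strand clusters on a modified Illumina MiSeq flow-cell were annealed to 100 nM quencher-labelled ATP aptamer, then imaged in selection buffer and again after 15 min with 500 uM ATP at 22 °C. Five such cycles were run, with NaOH stripping and re-annealing between them, and clusters outside 100-1000 RFU were excluded.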

Values marked as one replicate rest on one cluster of the flow cell; about a third of the high ones do not repeat.
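Note: ATP exposure 15 min at 22 °C before imaging.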

As to AGGTGGAGCG, the switch fluorescence ratio turned out to be 0.982.

CCATTGTAT: the switch fluorescence ratio was found to be 0.994.

On to TGTCTATACT, for which the switch fluorescence ratio was determined as 1.12.

Regarding CGCGCGGCTA, the switch fluorescence ratio was determined as 0.981.

As to CACTAGGCTA, the switch fluorescence ratio was 1.02.

Regarding ACGCACGCGC, the switch fluorescence ratio amounted to 1.24.

CATGGCCTAA: the switch fluorescence ratio was found to be 1.02.

With ATACCAGCTA, the switch fluorescence ratio came to 1.07.

For the sequence CTGGATGCCT, the switch fluorescence ratio is 0.984.

For the sequence TGGACTGGG, the switch fluorescence ratio is 0.99.

For the sequence TCCACATTAT, the switch fluorescence ratio is 1.07.

On to TTACAAACGA, for which the switch fluorescence ratio was determined as 1.29.

For the sequence ATAATCGCGG, the switch fluorescence ratio was found to be 0.967.

Take ATCAGGAGCG: the switch fluorescence ratio turned out to be 1.02.

As for TCCTTCCGTG, the switch fluorescence ratio turned out to be 2.91.

Take CAGCTAGGG: the switch fluorescence ratio is 1.03.

With ACGCCCCACT, the switch fluorescence ratio was found to be 1.26.

Take AACGACGCTG: the switch fluorescence ratio turned out to be 1.39.

Regarding TTAACGCAC, the switch fluorescence ratio is 1.89.

For TGCTCATATT, the switch fluorescence ratio is 0.973.

CAATTGTTGT: the switch fluorescence ratio was 0.968.

In the case of AGCGCCTGAG, the switch fluorescence ratio is 1.02.

For GGCGAGTCTT, the switch fluorescence ratio came to 0.965.

On to GGACGTACTT, for which the switch fluorescence ratio amounted to 1.65.

As to GAGCTATACC, the switch fluorescence ratio came to 1.55.

For the sequence GATGTACTTA, the switch fluorescence ratio turned out to be 0.964.

With TGAGGTCAG, the switch fluorescence ratio was 0.964.

Turning to GCGCCGAGGC, the switch fluorescence ratio is 1.04.

For the sequence AGCTAGGACC, the switch fluorescence ratio was 1.03.

Consider AATTTGGCTC, for which the switch fluorescence ratio turned out to be 0.945.

As for AGATTGTAGT, the switch fluorescence ratio was 0.99.

Consider AGCCGCCACA, for which the switch fluorescence ratio is 1.06.

Take TGCTCACTTT: the switch fluorescence ratio was found to be 0.994.

In the case of TGACACCGAG, the switch fluorescence ratio was found to be 1.1.

For the sequence TATCATCCGT, the switch fluorescence ratio came out at 1.11.

Consider GTTGCGCTTA, for which the switch fluorescence ratio worked out at 1.

Regarding TTGAATG, the switch fluorescence ratio came out at 1.01.

TCGGTCTAGG: the switch fluorescence ratio worked out at 1.04.

Turning to TCAACTTCA, the switch fluorescence ratio turned out to be 1.04.

Regarding AACCAAGCGT, the switch fluorescence ratio is 1.01.

As for GGCAGGCCTG, the switch fluorescence ratio was determined as 0.995.

Take TGGAAGCTAT: the switch fluorescence ratio is 1.02.

As for CGCCGATGCG, the switch fluorescence ratio was 1.06.

With AGGGCTCACG, the switch fluorescence ratio turned out to be 1.03.

With GGAGGTGTAG, the switch fluorescence ratio was 0.994.

TCAATACCCA: the switch fluorescence ratio is 1.08.

Consider TAGTAGGTCT, for which the switch fluorescence ratio was 1.44.

For TGGGACCCAG, the switch fluorescence ratio is 0.989.

As for AAATGTGACA, the switch fluorescence ratio was 1.

As for CGCATCGTGC, the switch fluorescence ratio was 1.19.

Turning to CCGGCGGGCG, the switch fluorescence ratio worked out at 0.976.

TAAGGCGCTG: the switch fluorescence ratio came to 0.97.

As for AGGACTAGGA, the switch fluorescence ratio was 0.997.

Regarding TCGTGAGTGC, the switch fluorescence ratio turned out to be 1.07.

TAGGCTGTT: the switch fluorescence ratio is 1.

Consider CGCACGTCTA, for which the switch fluorescence ratio amounted to 1.04.

On to TGGAAGTCGA, for which the switch fluorescence ratio worked out at 0.95.

In the case of GATGGGCCTA, the switch fluorescence ratio turned out to be 1.01.

As for ACAGATCAAT, the switch fluorescence ratio worked out at 1.09.

For the sequence AGCTGTGGAT, the switch fluorescence ratio is 1.05.

For the sequence GATTGGCGTC, the switch fluorescence ratio stood at 1.08.

For the sequence GTGCATTAT, the switch fluorescence ratio is 1.01.

Consider TCGGATTCAT, for which the switch fluorescence ratio is 1.09.

With AGTTTGGTG, the switch fluorescence ratio was 0.96.

GGGGAGTTAA: the switch fluorescence ratio came out at 0.937.

For the sequence GAAGCTTATG, the switch fluorescence ratio came to 1.03.

TACGGATGCG: the switch fluorescence ratio came to 0.942.

Consider GGCTGGAATT, for which the switch fluorescence ratio was found to be 0.943.

Turning to ATATTGCGAT, the switch fluorescence ratio amounted to 1.01.

On to ATTTGGACTC, for which the switch fluorescence ratio came to 1.01.

Consider GTGTAATTT, for which the switch fluorescence ratio is 0.981.

For the sequence TAACAAGGTG, the switch fluorescence ratio came to 1.26.

In the case of TACATGGCAC, the switch fluorescence ratio was 1.14.

On to ATTAAGTTAA, for which the switch fluorescence ratio amounted to 1.01.

On to AATAACTCA, for which the switch fluorescence ratio worked out at 0.974.

For ACCTTTTACT, the switch fluorescence ratio was found to be 1.12.

Regarding ATGCATCAGC, the switch fluorescence ratio amounted to 1.03.

Take CGGGACACGA: the switch fluorescence ratio came to 1.06.

On to AATCTCGCTT, for which the switch fluorescence ratio is 1.02.

For the sequence TGGGTTGCGG, the switch fluorescence ratio was determined as 1.

Turning to TAGTCCTTGA, the switch fluorescence ratio stood at 1.09.

Turning to CCCCACCTTT, the switch fluorescence ratio came to 1.03.

Take GCGAGGTGGC: the switch fluorescence ratio worked out at 1.02.

TAGTTGGCCT: the switch fluorescence ratio was determined as 0.996.

Regarding ACGTTCTATT, the switch fluorescence ratio was found to be 1.01.

For TTTGTTTATG, the switch fluorescence ratio was 1.01.

For the sequence AATGTTTAAG, the switch fluorescence ratio was 0.98.

As for TTCGGTATCG, the switch fluorescence ratio came to 1.03.

Regarding GATCGATCAA, the switch fluorescence ratio came out at 0.993.

CCAACACAAC: the switch fluorescence ratio turned out to be 1.95.

Turning to GGGCGGGTTA, the switch fluorescence ratio is 1.04.

In the case of CAATTGGGAG, the switch fluorescence ratio amounted to 0.938.

In the case of GAAGGTAGCG, the switch fluorescence ratio was found to be 0.923.

Regarding TATGCAGTCC, the switch fluorescence ratio stood at 1.06.

Turning to ACCGTCCGGA, the switch fluorescence ratio turned out to be 1.06.

As to GTCGATTGCA, the switch fluorescence ratio amounted to 1.04.

For the sequence GAGGAAGGCG, the switch fluorescence ratio worked out at 1.04.

Regarding GTTCCCTGTG, the switch fluorescence ratio came to 1.05.

For TGGAAGAACA, the switch fluorescence ratio is 1.03.

ACGAAATGTG: the switch fluorescence ratio was 1.06.

In the case of TAGGCGGTAA, the switch fluorescence ratio stood at 1.29.

TAAGGGCAGC: the switch fluorescence ratio came to 1.02.

On to ATTGGTCCG, for which the switch fluorescence ratio stood at 0.971.

Turning to CGAACACAGC, the switch fluorescence ratio turned out to be 1.16.

As to GGTAACGAAC, the switch fluorescence ratio was 1.32.

Take TATATTAGCA: the switch fluorescence ratio came out at 1.02.

CAGATCCCGT: the switch fluorescence ratio was found to be 0.974.

TGGGACATAG: the switch fluorescence ratio is 1.01.

Take GCCGGAGGCA: the switch fluorescence ratio worked out at 1.03.

TGATCCTGTA: the switch fluorescence ratio is 0.982.

As for CGCTAGCGCT, the switch fluorescence ratio stood at 0.991.

As for GCAGCGTGGC, the switch fluorescence ratio was determined as 1.07.

For the sequence GGCGCAGGGT, the switch fluorescence ratio is 1.03.

As to TTCCTTTCGT, the switch fluorescence ratio stood at 1.04.

With GCCTGGGCTA, the switch fluorescence ratio was 1.02.

CCCTGGTCAA: the switch fluorescence ratio was found to be 1.09.

Consider AGAGCTAGT, for which the switch fluorescence ratio worked out at 1.01.

For the sequence TGTCGCACCT, the switch fluorescence ratio is 1.04.

On to CCGGGTCTCC, for which the switch fluorescence ratio came out at 1.2.

Take GTAACGTTTG: the switch fluorescence ratio was found to be 0.997.

Source of the values: the supplement of paper PMC10126150.
